SMILES strings stand for the structures. This is one part of the list.

In the experiment the test system is HSkMC (human skeletal muscle cells). Kind of experiment: cytotoxicity call (relative viability < 0.9). The settings on record: 10 µM.
On to `O=C1c2ccccc2[C@](Cc2ccccc2I)(C(=O)NCC(F)(F)F)[C@H](c2ccc(CO)cc2)N1C1CCCCC1`, for which the cytotoxicity call is “inactive”. The result for `COc1cc([C@@H](O)CO)ccc1OS(=O)(=O)O` reads “inactive”; that for `CCCNC(=O)N(C)C[C@@H]1Oc2cc(C#Cc3cccc(F)c3)ccc2S(=O)(=O)N([C@@H](C)CO)C[C@H]1C`, “inactive”; that for `COc1ccc(S(=O)(=O)Nc2ccc3c(c2)C(=O)N([C@@H](C)CO)C[C@H](C)[C@@H](CN(C)S(C)(=O)=O)O3)cc1`, “inactive”.

With `CCC(=O)N1C[C@]2(C1)CN([C@@H](CO)c1c2c2ccc(cc2n1C)OC)S(=O)(=O)C`, the cytotoxicity call was “inactive”.

In the case of `CC(C)NC(=O)Nc1ccc2c(c1)CC(=O)N([C@H](C)CO)C[C@H](C)[C@@H](CN(C)Cc1ccc(C(=O)O)cc1)O2`, the cytotoxicity call was “inactive”. Turning to `CC(C)NC(=O)N(C)C[C@@H]1Oc2ccc(NS(=O)(=O)c3ccccc3)cc2CC(=O)N([C@H](C)CO)C[C@@H]1C`, the cytotoxicity call is “inactive”. For the molecule `CCCC#Cc1cnc2c(c1)C(=O)N([C@H](C)CO)C[C@@H](C)[C@H](CN(C)C(=O)c1ccc3c(c1)OCO3)O2`, the cytotoxicity call is “inactive”.

Regarding `COc1ccc(S(=O)(=O)N(C)C[C@@H]2OCCCC[C@@H](C)Oc3ccc(NS(C)(=O)=O)cc3C(=O)N([C@H](C)CO)C[C@@H]2C)cc1`, the cytotoxicity call is “inactive”. For the molecule `COc1ccc(CN(C)C[C@H]2OCCCC[C@@H](C)Oc3ccc(NC(=O)NC(C)C)cc3C(=O)N([C@@H](C)CO)C[C@@H]2C)cc1`, the cytotoxicity call was “inactive”. For `C[C@@H]1CN([C@@H](C)CO)C(=O)Cc2cc(NC(=O)Nc3ccccc3)ccc2O[C@@H]1CN(C)Cc1ccc(-c2ccccc2)cc1`, the cytotoxicity call was “inactive”.

These data come from the antibiotic and cytotoxicity screens of Wong et al. (2023).
